From PubChem BioAssay AID1468 (National Center for Advancing Translational Sciences (NCATS), 2008)
Screen size: about 280,000 compounds; about 1,100 (0.39%) were called active. Inconclusive results, whose numbers are uncertain, are shown with a selection of clear calls. The call rests on the fitted dose curve; in most records, active means well fitted inhibition curve with a large enough effect; inconclusive means small, poorly fitted or top-dose-only effect, or effect the other way; inactive means flat fitted curve, though single readings scatter. No potency is given beside an inconclusive call; the fits are too rough.

The compounds below were run against Microtubule-associated protein tau (Homo sapiens) (UniProt P10636) (assay: qHTS for Inhibitors of Tau Fibril Formation, Fluorescence Polarization). Settings: K18 P301L tau heparin fibrillization, Alexa594 FP, 6 h; series mostly up to 57.7 µM; activity, negative = inhibition: at the top concentration.
Method in brief: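 Quantitative HTS format: compounds meet 15 uM recombinant K18 P301L tau and Alexa 594-tau tracer in 100 mM sodium acetate pH 7; 20 uM heparin triggers fibrillization at 37 C over 6 hr; FP gives the signal.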
Further: nearly all actives have a fitted effect of over 55% in size.
On the % scale 0 is the no-effect control and ±100 the full control effect; potency means the concentration at half of the fitted maximal effect; tags describe the fitted curve by direction and shape.

UniProt P10636, sequence (P10636 whole entry, looked up): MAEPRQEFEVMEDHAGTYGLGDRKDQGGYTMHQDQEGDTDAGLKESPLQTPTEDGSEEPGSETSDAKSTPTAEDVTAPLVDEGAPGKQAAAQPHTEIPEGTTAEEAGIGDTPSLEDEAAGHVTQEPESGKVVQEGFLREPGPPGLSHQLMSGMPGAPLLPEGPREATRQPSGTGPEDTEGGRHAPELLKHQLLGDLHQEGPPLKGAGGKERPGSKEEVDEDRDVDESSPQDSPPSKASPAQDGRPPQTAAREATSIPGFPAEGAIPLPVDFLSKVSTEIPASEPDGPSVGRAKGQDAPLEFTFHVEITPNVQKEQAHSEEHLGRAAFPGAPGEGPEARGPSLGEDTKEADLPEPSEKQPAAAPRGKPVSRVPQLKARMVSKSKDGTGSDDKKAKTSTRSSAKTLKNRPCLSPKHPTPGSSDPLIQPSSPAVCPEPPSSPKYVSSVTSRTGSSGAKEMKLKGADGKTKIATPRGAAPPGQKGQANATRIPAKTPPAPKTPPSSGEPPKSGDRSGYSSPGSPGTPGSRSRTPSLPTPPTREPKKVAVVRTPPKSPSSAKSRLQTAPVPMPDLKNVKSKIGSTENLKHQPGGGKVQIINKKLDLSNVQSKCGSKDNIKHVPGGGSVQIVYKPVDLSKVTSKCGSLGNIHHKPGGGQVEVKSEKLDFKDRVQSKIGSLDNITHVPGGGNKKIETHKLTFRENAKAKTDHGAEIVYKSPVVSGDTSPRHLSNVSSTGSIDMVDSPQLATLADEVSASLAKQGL

Row | SMILES | Potency | activity, negative = inhibition
1 | Cc1oc(-c2ccccc2Cl)nc1CSc1nncn2c1cc1occc12 | inconclusive [inhibitor, partial curve] | –
2 | Cc1cccc(C(=O)Nc2ccc(C(=O)/C=C/c3cccnc3)cc2)c1 | inconclusive [inhibitor, single point] | –
3 | Cc1ccc2nc(-c3c[nH]c4ccccc34)c(Nc3ccc(F)cc3)n2c1 | inconclusive [activator, partial curve] | –
4 | Cc1cc([N+](=O)[O-])nn1CCCC(=O)Nc1sc2c(c1C(N)=O)CCCC2 | – | inactive: 1.22%
5 | COc1ccccc1C(=O)NCC(=O)n1nc(C)cc1C | – | inactive: 0.121%
6 | CC(=O)Nc1ccc(NC(=O)C2Cc3ccccc3N2C(=O)c2ccccc2)cc1 (stereo not drawn) | – | inactive: -10.2%
7 | CC(C)OCCCn1c(=O)c2ccccc2n2c(-c3ccccc3F)nnc12 | inconclusive [inhibitor, single point] | –
8 | Fc1ccc(C2CC(c3ccco3)=Nc3ccccc3S2)cc1 (stereo not drawn) | inconclusive [inhibitor, single point] | –
9 | Cc1ccc(C2NC(=O)c3c(sc4c3CCN(C)C4)N2)s1 (stereo not drawn) | inconclusive [inhibitor, single point] | –
10 | COc1ccc(Cc2noc(CN(C)CC3CCN(Cc4ccccc4)CC3)n2)cc1OC | inconclusive [inhibitor, partial curve, poor fit] | –
11 | COc1ccc(/C=C/C(=O)Nc2cccc(S(=O)(=O)N3CCCC3)c2)cc1OC | inconclusive [inhibitor, partial curve] | –
12 | Cc1cc(C)c(NC(=O)Cc2ccc(-n3c(C)nc4cccnc43)cc2)c(C)c1 | inconclusive [inhibitor, single point] | –
13 | CO[C@@H]1c2cc(F)ccc2/C(=C\CCOC(=O)C/C=C/c2ccccc2)[C@H]1C | inconclusive [inhibitor, full curve, poor fit] | –
14 | CCOc1cc(C2C(C(=O)OC)=C(C)NC3=C2C(=O)c2ccccc23)cc(Br)c1OCC (stereo not drawn) | inconclusive [inhibitor, partial curve, poor fit] | –
15 | N#Cc1ccccc1NC(=O)CSC1=Nc2ccccc2C2CC=NN12 (stereo not drawn) | inconclusive [inhibitor, partial curve] | –
16 | CCCCn1c(=O)[nH]c(=O)c2c1nc(-c1ccc(C#N)cc1)n2C1CCCC1 | inconclusive [activator, single point] | –
17 | O=C(c1ccc([N+](=O)[O-])cc1)N1c2ncnn2C2(CCCCC2)[C@@H]2CCCC[C@@H]21 | inconclusive [activator, full curve, poor fit] | –
18 | COc1ccc(Cl)cc1C(=O)NCc1nc(-c2cccc(C)c2)no1 | inconclusive [inhibitor, partial curve, poor fit] | –
19 | O=C1/C(=C/c2ccc(C(=O)O)cc2)CCC/C1=C\c1ccc(C(=O)O)cc1 | inconclusive [inhibitor, partial curve] | –
20 | CCOC(=O)N1CCC(NC(=O)C2CCN(C(=O)N3CC(C)Oc4ccccc43)CC2)CC1 (stereo not drawn) | – | inactive: 6.79%
21 | O=C(N/N=C/c1ccccc1Br)c1ccc(CSc2cccc3cccnc23)cc1 | inconclusive [inhibitor, partial curve] | –
22 | O=C(NCc1ccccn1)C(=O)N/N=C/c1ccccc1O | inconclusive [inhibitor, partial curve, poor fit] | –

Row | SMILES | Potency | activity, negative = inhibition
23 | O=C(Cc1coc2ccc3ccccc3c12)NC1CCCc2ccccc21 (stereo not drawn) | – | inactive: -8.03%
24 | CCOC(=O)c1cc(CC)sc1/N=C/C1=C(O)CC(C)(C)CC1=O | – | inactive: 2.08%
25 | CC(=O)Nc1ccccc1C(F)(F)F | – | inactive: -6.43%
26 | CN1c2ccsc2/C(=N/NC(=O)c2c(F)cccc2F)CS1(=O)=O | – | inactive: -11.9%
27 | O=c1cc(-c2ccccc2O)oc2c1ccc1ccccc12 | – | inactive: -2.5%
28 | CCOc1cc(/C=N/NC(=O)c2cccs2)ccc1OC(=O)N1CCOCC1 | – | inactive: -5.66%
29 | O=C(Cn1nc(-c2ccc3c(c2)OCCO3)ccc1=O)Nc1cccc(NC(=O)c2ccccn2)c1 | – | inactive: -12%
30 | CN1CC(C(=O)O)Cc2c1ccc1ccccc21 (stereo not drawn) | inconclusive [inhibitor, single point] | –
31 | COc1ccc(/C=N/NS(=O)(=O)c2ccccc2)cc1OC(=O)c1ccc(C)cc1 | inconclusive [inhibitor, single point] | –
32 | O=C(O)c1ccc(COc2ccc(Cl)cc2)o1 | – | inactive: 9.73%
33 | O=C1c2ccccc2C(=O)N1CCCCN(C(=O)c1cc([N+](=O)[O-])ccc1Cl)c1ccc(Cl)cc1 | – | inactive: 13.1%
34 | CC(C)N=C1NN=C(c2cccs2)C(CC(=O)O)S1 (stereo not drawn) | inconclusive [inhibitor, single point] | –
35 | CC(=O)OCc1cc(-c2nc3ccccc3[nH]c2=O)nn1-c1ccc(Cl)cc1 | inconclusive [inhibitor, single point] | –
36 | COC(=O)[C@H]1C[C@@H]1[C@H](NS(=O)(=O)c1ccc(-c2ccccc2)cc1)c1ccccc1 | inconclusive [inhibitor, single point] | –
37 | CC1=C(C(=O)Nc2ccccc2)C(c2cccc([N+](=O)[O-])c2)Nc2nc3ccccc3n21 (stereo not drawn) | inconclusive [activator, single point] | –
38 | Cc1ccc(NC(=O)CSc2nc(-c3ccco3)cc(C(F)(F)F)n2)cc1C | inconclusive [inhibitor, single point] | –
39 | O=C(O)CCN1C(=O)C2C3CC(C2C1=O)C1C(c2ccccc2)c2sc(=O)[nH]c2SC31 (stereo not drawn) | – | inactive: -3.16%
40 | COc1ccc(C2N3CC4(C)CN2CC(c2ccccc2)(C3)C4=O)cc1 (stereo not drawn) | inconclusive [inhibitor, single point] | –
41 | COc1ccc(-c2nc3ccccc3c(=O)n2CCCn2ccnc2)cc1 | – | inactive: 2.35%
42 | CC(C)c1ccc(NC(=O)CCNS(=O)(=O)c2cccc3nsnc23)cc1 | inconclusive [inhibitor, partial curve] | –
43 | COc1ccc(C(=O)Oc2ccc(C(c3c(C)[nH][nH]c3=O)c3c(C)[nH][nH]c3=O)cc2OC)cc1 | – | inactive: -1.06%
